Measurements as given in PubChem BioAssay (NCI).
Where “and” joins values, the source holds several entries; their conditions need not be identical. Equal values may be shown once.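 Following 48 hours of exposure in 96-well plates, responses at five concentrations were used to interpolate endpoints linearly. GI50 = concentration required for 50% inhibition of growth. At the TGI there is no net growth.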 Square brackets hold non-standard residues; d marks the D form. Peptide text beside a SMILES is read from it. * marks the point of attachment. ξ: configuration not given here. ξF = NC(Cc1ccccc1)C(=O)O; Cbz = O=C(OCc1ccccc1)*; Aib = CC(C)(N)C(=O)O

tested on: NCI-H322M lung; assay: DTP human tumour cell line panel, 48 h

Row | SMILES | TGI | GI50 [µM]
1 | Cc1ccc(/C=C2\CCCC(CN(C)C)C2=O)cc1 (centres undefined) | 28.4 µM | 
2 | COc1ccc(/C=C2/NC(=S)N=C2Cl)cc1 | > 100 µM | 
3 | COc1ccc2c(c1)CC1c3c(ccc(OC)c3O)CC2N1C (centres undefined) | > 100 µM | 
4 | CCCCCCOc1ccc(C(=O)N(C)O)cc1 | > 100 µM | 
5 | NCCOc1ccccc1/C=C1\c2ccccc2-c2ccc([N+](=O)[O-])cc21 | 2.96 µM | 1.6
6 | O=C(CN1CCOCC1)c1ccc2c(c1)oc(=O)n2CCN1CCCC1 | > 100 µM | 
7 | COC(=O)C(CBr)CBr | 29.9 µM | 
8 | COC(=O)c1c[nH]c2c1-c1cc(C(=O)OCc3ccccc3)n(S(=O)(=O)c3ccc(C)cc3)c1C(=O)C2=O | 0.872 µM | 
9 | CCOC(=O)/C=C/[C@H](O)[C@@H](O)/C=C/C(=O)OCC | > 100 µM | 
10 | C[CH2][Ge]([CH2]C)([CH2]C)[O]C(=O)CCC(=O)[O][Ge]([CH2]C)([CH2]C)[CH2]C | > 100 µM | > 100
11 | Cc1[nH]c(-c2nc3ccccc3[nH]2)c(C)c1C(=O)NC(C)C1CCCCC1 (centres undefined) | 26.9 µM | 13.4
12 | COc1ccc2c(Cl)cc(NC(=O)Nc3c(C)cccc3C)nc2c1 | > 100 µM | 48.7
13 | O=C1NC(=O)/C(=C/c2ccc(S(=O)(=O)N/N=C\C(O)C(O)C(O)C(O)CO)cc2)N1 (centres undefined) | > 100 µM | 
14 | O=C(O)CN1CCN(CC(=O)N2CCN(C(=O)OCc3ccccc3)CC2)CCN(CC(=O)O)CCN(CC(=O)N2CCN(C(=O)OCc3ccccc3)CC2)CC1 | > 100 µM | 
15 | CC1Cc2cc(O)c(O)cc2-c2cc(O)c(O)cc2CC1C (centres undefined) | 48.4 µM | 
16 | COc1cc(C2C3=C(COC3=O)Nc3c2ccc2c3CCCC2)cc2c1OCO2 (centres undefined) | > 100 µM | 0.099
17 | O=[N+]([O-])c1ccc(/C=C/c2csnn2)cc1 | > 100 µM | 
18 | CCCCNC(=O)c1cc(NCc2cc(O)ccc2O)ccc1O | > 100 µM | > 100
19 | NC(=O)C(=O)C(c1ccccc1)S(=O)(=O)Cc1ccccc1 (centres undefined) | > 100 µM | 
20 | Cc1ccc(N2CCN(CCC(=O)O)CC2)cc1 | > 100 µM | 
21 | COC(=O)[C@]1(c2cc3ccccc3[nH]2)CC2CN(CC(=O)N(C)OC)C1CC2(OC)OC (some centres undefined) | > 100 µM | 
22 | O=C(O)CCc1c2ccc(=O)c(O)c-2oc2c(O)c(O)ccc12 | > 100 µM | 
23 | Clc1ccc(-c2ccc(-c3nnc(COc4ccc(OCc5nnc(-c6ccc(-c7ccc(Cl)cc7Cl)o6)o5)c(Cl)c4)o3)o2)c(Cl)c1 | > 100 µM | 
24 | Cc1ccc(C2=Nc3c(N)ncnc3NC(c3ccc4c(c3)OCO4)C2)cc1 (centres undefined) | > 100 µM | 16.5
25 | CCN(CC)/[N+]([O-])=N/OCOC(C)=O | > 100 µM | 

Row | SMILES | TGI | GI50 [µM]
26 | COc1c(-c2ccc(O)c(O)c2)oc2c(O)c(O)cc(O)c2c1=O | > 100 µM | 
27 | N#Cc1c(O)cc(=O)n2c1[nH]c1ccccc12 | > 100 µM | 
28 | c1cncc(O[Si](Oc2cccnc2)(Oc2cccnc2)Oc2cccnc2)c1 | > 100 µM | 
29 | COC(=O)/C=C1/SC(N2N=C(c3cccs3)CC2c2ccc(F)cc2)=NC1=O (centres undefined) | 6.68 µM | 2.24
30 | O=C(O)C1(Cc2ccc3c(c2)CCC3)Cc2ccccc2C1 | > 100 µM | 
31 | O=c1c2cc(Cl)ccc2[nH]c2cc(O)cc(O)c12 | > 10 µM | 
32 | C=C1C2CC(OC(C)=O)C3(C)C(c4ccoc4)OC(=O)[C@@H](O)[C@]13OC1C[C@H](OC(C)=O)C(C)(C)[C@H](CC(=O)OC)[C@]12C (some centres undefined) | > 100 µM | 
33 | NCCSCc1ccccc1Cl | > 100 µM | 
34 | CN(C)S(=O)(=O)n1cnc(CO)c1 | > 100 µM | 
35 | O=C(Cc1nc2ncccc2[nH]c1=O)c1c[nH]c2ccccc12 | 51.7 µM | 
36 | C=CC1(NS(=O)(=O)c2ccc(C)cc2)CCC(C(C)(C)C)CC1 (centres undefined) | > 100 µM | 
37 | O=C1NC(N2CCCCC2)=N/C1=C\c1ccccc1O | > 100 µM | 
38 | O=c1c2cc(I)ccc2nc(SCc2n[nH]c(=S)o2)n1Cc1ccccc1 | 48.5 µM | 
39 | COc1cc(Nc2nnc3n2S(=O)(=O)c2cc(C)c(Cl)cc2S3)cc(OC)c1 | > 100 µM | 
40 | CC(C)CC(Nc1c(O)ccc2ccccc12)C(=O)O (centres undefined) | 83.2 µM | 
41 | CN1CCN(Cc2ccc(NC(=O)c3cncc(C#Cc4cncc5nccnc45)c3)cc2C(F)(F)F)CC1 | 8.91 µM | 2.5
42 | CN(C)CC1CCCCCCCCCC(CN(C)C)C1=O (centres undefined) | > 100 µM | 
43 | O=c1oc2ccc(Cl)cc2cc1-c1cn2ccccc2n1 | > 100 µM | 
44 | CC(C)n1nc(-c2ccc3oc(N)nc3c2)c2c(N)ncnc21 | 0.369 µM and 0.858 µM | < 0.0127
45 | CCOC(=O)c1oc2ccc([N+](=O)[O-])c3c2c1CCC3 | > 100 µM | 
46 | O=S(=O)(c1ccccc1)n1cc(C[P+](c2ccccc2)(c2ccccc2)c2ccccc2)c2ccccc21 | 27.3 µM | 
47 | CCCCNC(=O)Oc1ccc(/C(=C(/C)Cc2ccc(OC)cc2)c2ccc(OCCN3CCCC3)cc2)cc1 | 13.8 µM | 3.26
48 | O=C(CC(=O)N1N=C(N(c2ccccc2)c2ccccc2)CC1c1ccccc1)Nc1ccc(Cl)cc1 (centres undefined) | > 100 µM | 
49 | Cc1nc2ccc(NC3OC(CO)C(O)C(O)C3O)cc2c(=O)n1-c1ccccc1 (centres undefined) | > 100 µM | 
50 | O=C(N/N=C/c1ccccc1O)c1ccccc1Nc1ccccc1C(=O)N/N=C/c1ccccc1O | > 79 µM | 

Row | SMILES | TGI | GI50 [µM]
51 | Cc1[nH]nc2c1N=C(c1ccccc1F)c1cc(C(N)=O)ccc1N2 | > 25 µM | 9.06
52 | C=C(C)C(O)C(O)C[C@@H](C)C1CC[C@]23C[C@]12CCC1[C@@]2(C)CCC(OC(C)=O)C(C)(C)C2CC(OC2OC(CO)C(O)C(O)C2O)[C@]13C (some centres undefined) | 52 µM | 
53 | CC1=CC(C)C(C)N(CCNS(=O)(=O)c2ccc(C)cc2)c2ccccc21 (centres undefined) | > 31.6 µM | 
54 | O=C(Nc1cc(Cl)cc(Cl)c1)/C(Cc1nc2ccccc2[nH]c1=O)=N/NC(=O)c1ccncc1 | > 100 µM | 
55 | COC(=O)C1=CN(C2CCCCC2)C2(c3ccccc3)c3ccccc3C(=O)OC(=O)C12 (centres undefined) | > 100 µM | 
56 | CO[C@@H]1C[C@H]2N3CC[C@@]2(c2cc4c(cc2C3)OCO4)[C@H]2O[C@@H]12 | > 100 µM | 
57 | O=C1C(=O)c2ccccc2C(O)=C1CCCc1ccc(C2CCCCCC2)cc1 | 8.72 µM | 0.717
58 | C/C=C/[C@H]1O[C@@H]2C(=C[C@H]1O)C(=O)O[C@H]2C | > 100 µM | 77.6
59 | COC(=O)C(C)(C)NC(=O)C(Cc1ccccc1)NC(=O)C(C)(C)NC(=O)OCc1ccccc1 (centres undefined) (Cbz-[Aib]-[ξF]-[Aib]-OMe) | > 100 µM | 
60 | CCC(C)C1NC(=O)C2CCCN2C(=O)CNC(=O)C(C)NC(=O)C(Cc2ccccc2)NC(=O)C(C(C)C)NC1=O (centres undefined) (cyclo(GPIVFA); configuration not given here) | > 100 µM | 
61 | Cc1nn2c(C(=O)N/N=C/c3ccc([N+](=O)[O-])cc3)c(C)nc2s1 | > 100 µM | 
62 | NC(N)=Nc1nc2ccc([N+](=O)[O-])cc2[nH]1 | > 100 µM | 
63 | COc1ccc(/C(Cl)=C(\c2ccc(OCCN(C)C)cc2)c2ccc(OC(=O)C(C)(C)C)cc2)cc1 | 28.1 µM | 
64 | CCCCCCCCCCCCCCCC(=O)OCC1OC(OC)C2NP(=O)(N(CCCl)CCCl)OC1C2O (centres undefined) | > 100 µM | 
65 | C/C(=N\NC(=S)N1CC2CCC(CC2)C1)c1cccc(C)n1 | 17.3 µM | 2.51
66 | CC(=O)c1cccc(NC(=O)C(=O)C(c2cnc3ccc([N+](=O)[O-])cc3n2)[N+](=O)[O-])c1 (centres undefined) | > 100 µM | 
67 | C=C1C(=O)OC2CC(=C)C3CC=C(C)C3CC12 (centres undefined) | > 100 µM | 
68 | CSc1nc(NC2OC(COC(C)=O)C(OC(C)=O)C(OC(C)=O)C2OC(C)=O)c(-c2csc(N)n2)c(=O)n1C (centres undefined) | > 100 µM | 
69 | CC12CO[C@@](C)(CC(S(=O)(=O)c3ccccc3)C1)O2 (some centres undefined) | > 100 µM | 
70 | N#Cc1c(Cl)nc2ccccc2c1N=[N+]=[N-] | 8.43 µM | 
71 | C[n+]1c(-c2ccc(/C=N/NC(=O)c3ccc(C(=O)N/N=C/c4ccc(-c5cn6ccccc6[n+]5C)cc4)cc3)cc2)cn2ccccc21 | > 1000 µM | > 1000
72 | N#Cc1c(N)nc(N)nc1N[C@H](c1nc2c(F)ccc(Cl)c2c(=O)n1-c1cccnc1)C1CC1 | 24.3 µM | 3.95
73 | CC(=O)C1=C(C)N(C)C2(O)C=CC(=O)C3=C(O)c4ccccc4C(=O)C312 (centres undefined) | 9.1 µM | 2.97
74 | CN1CCN(c2nc(NCCCNc3ccnc4cc(Cl)ccc34)c3ccccc3n2)CC1 | 13.3 µM | 3.49
75 | CCCCc1n(Cc2ccc3ccccc3c2)cc[n+]1Cc1ccc2ccccc2c1 | 2.75 µM | 1.38

Row | SMILES | TGI | GI50 [µM]
76 | O=S1(=O)CS(=O)(=O)OCCO1 | 329 µM | 
77 | COc1cc([C@@]23OC[C@@H]4[C@@H](OC[C@@H]42)c2cc4c(cc23)OCO4)cc(OC)c1OC | > 100 µM | 
78 | Cc1ncc([N+](=O)[O-])n1CCNCCCn1ccnc1[N+](=O)[O-] | > 100 µM | 
79 | CC(C)(C)c1cc(OCc2nnc3sc(=S)[nH]n23)c(Cl)cc1OCc1nnc2sc(=S)[nH]n12 | > 100 µM | 
80 | CCCCCCCCCCCCOc1ccc(/C=C/C2=[N+](CCCl)CCO2)cc1 | 71.8 µM | 
81 | CCN(CC)c1ccc2cc(-c3nnc(-c4ccccc4O)o3)c(=O)oc2c1 | 30.3 µM | 
82 | Cc1ccc(NC(=S)SCCC(=O)O)cc1 | > 100 µM | 
83 | CC(C)(C)OC/C=C1\C(=O)O[C@H]2C[C@@H](O[Si](C)(C)C(C)(C)C)C[C@@H]12 | > 100 µM | 
84 | O=C1N[C@@H]2c3c(Br)sc(Br)c3C(=O)[C@@H]2O1 | 21.9 µM | 
85 | COc1cc2ncnc(Nc3ccc4c(cnn4Cc4ccccc4)c3)c2cc1OC | > 25 µM | 0.416
86 | CCCCC(=O)N/N=C/c1c(O)ccc2ccccc12 | > 22.8 µM | 0.568
87 | NC(=O)N/N=C(/Cc1nc2ccc(C(=O)c3ccccc3)cc2[nH]c1=O)C(=O)Nc1ccc(C(F)(F)F)cc1[N+](=O)[O-] | > 100 µM | 
88 | COC1C(OC(=O)/C=C/C=C/C=C/C=C\C(=O)O)CCC2(CO2)C1C1(C)OC1CC=C(C)C (centres undefined) | > 200 µM | > 200
89 | OCCNCCCOc1ccc2ncnc(Nc3ccc(Oc4cccc(C(F)(F)F)c4)c(Cl)c3)c2c1 | 2.55 µM | 1.16
90 | COc1cccc2c1C(=O)c1c(O)c3c(c(O)c1C2=O)C[C@@](O)(C(=O)CO)CC3OC1CC(O)C(O)C(C)O1 (some centres undefined) | 7.31 µM | 
91 | Cc1ccn2c(CCc3nnc4cc(C)ccn34)nnc2c1 | > 100 µM | 
92 | CC(C)(C)OC(=O)c1ccc(NCC2=CC(=O)C=CC2=O)cc1 | 85.4 µM | 
93 | Fc1cccc(Cl)c1C1SCc2nc3cc4ccccc4cc3n21 (centres undefined) | > 100 µM | 
94 | CCc1cc2ncc(CN3CCN(c4ccc(C(=O)NC)nc4)CC3)cc2[nH]c1=O | > 100 µM | > 100
95 | COc1ccc(/C=c2/sc3n(c2=O)NC2(CCC(C)CC2)NN=3)cc1 (centres undefined) | > 100 µM | 
96 | Cc1ccc(C(SCC(N)C(=O)O)(c2ccccc2)c2ccccc2)cc1 (centres undefined) | > 100 µM | 0.0839
97 | Cn1c2ccccc2c2c3[nH][nH]c(=O)c3c3c4ccccc4[nH]c3c21 | 60.8 µM | 2.65
